Measured values as given in the supplement of paper PMC3334620.
Over roughly 33,000 sequences, “E-score (-0.5 to 0.5)” has its median near -0.054; the highest 2% begin near 0.35. The list shows a part of the results.

What follows are sequences tested against T1, Stb5 (UniProt P38699) (assay: PBM E-score (8-mer binding enrichment) (E-score (-0.5 to 0.5)); higher = stronger / more preferred TF binding; most listed sequences are background and not binding sites). Details: protein concentration: 200 nM; construct: GST-full length.
T1 sequence: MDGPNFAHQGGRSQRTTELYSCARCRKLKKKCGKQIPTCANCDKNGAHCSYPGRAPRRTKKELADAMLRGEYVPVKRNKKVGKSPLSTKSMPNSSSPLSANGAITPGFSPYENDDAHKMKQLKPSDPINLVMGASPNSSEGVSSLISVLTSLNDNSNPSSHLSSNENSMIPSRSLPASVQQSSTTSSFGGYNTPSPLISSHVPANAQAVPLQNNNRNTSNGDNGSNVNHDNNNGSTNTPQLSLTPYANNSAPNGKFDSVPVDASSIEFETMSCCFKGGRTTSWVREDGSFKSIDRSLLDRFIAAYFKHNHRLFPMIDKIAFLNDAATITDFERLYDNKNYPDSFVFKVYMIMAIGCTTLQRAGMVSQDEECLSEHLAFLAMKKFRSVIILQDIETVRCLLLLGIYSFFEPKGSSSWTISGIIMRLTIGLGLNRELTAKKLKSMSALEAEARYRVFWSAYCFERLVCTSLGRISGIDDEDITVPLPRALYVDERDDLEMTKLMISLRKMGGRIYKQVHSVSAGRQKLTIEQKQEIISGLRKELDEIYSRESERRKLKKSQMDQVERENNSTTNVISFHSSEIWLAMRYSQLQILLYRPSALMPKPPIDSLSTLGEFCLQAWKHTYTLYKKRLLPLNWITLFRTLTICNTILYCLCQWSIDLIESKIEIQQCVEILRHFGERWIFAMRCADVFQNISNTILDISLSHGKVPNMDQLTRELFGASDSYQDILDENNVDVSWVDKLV
How it was run: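 Yeast transcription factors carrying a GST tag, as full-length proteins or DNA-binding domains, were produced by PURExpress in vitro transcription/translation. About 100-200 nM protein was applied to universal all-10-mer Agilent arrays, double-stranded by primer extension on fresh or once-stripped slides. Bound protein was detected with fluorescent anti-GST, and scans were normalised with masliner. The Universal PBM Analysis Suite gave each ungapped eight-base word, pooled with its reverse complement, an E-score, a modified Wilcoxon-Mann-Whitney statistic.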

Sequence	PBM E-score
AAGCTGTC	-0.214
GAGTCTGC	-0.274
GAACGTAA	-0.18
CCCTAACA	-0.184
CAGCCTTC	-0.321
ACGTTGGA	-0.298
AGTCCCGC	0.358
GTACTGGA	-0.147
CGGTATAA	0.327
AGGCCTAC	0.0243
CGGTTAAC	0.18
ATATCCTG	-0.165
AACAGATT	-0.224
CGGGTTTC	0.273
AAGCCGTG	-0.0242
CATCGTTA	-0.0894
GACCTCAC	0.0462
CATTGTGG	-0.077
ATTCATTA	0.117
TCCCAGCA	-0.0554
AAAACGCC	0.368
GAGGGCCA	-0.195
GCTATCTA	-0.0923
ACCTCTTC	0.0753
AGACTGGC	-0.215

Sequence	PBM E-score
CTGTTGCA	-0.0546
GGCTTACC	0.0504
CTTCACTC	-0.116
AAAACACT	0.0252
CGTTAAGC	0.159
ATCACCTG	0.0314
GGCAAGAC	0.0734
CGCCACCC	-0.0067
TAAGTGAA	-0.0582
GACCCAAA	-0.0119
GTTATTCA	-0.0651
ATGCACTA	-0.0627
AGCGATAT	-0.141
GCCCTCCC	0.0336
CCAATTGA	-0.24
CAAAATAC	0.0466
CCCGTAAG	0.139
ACCATTTC	-0.208
AACCCATC	-0.139
ATGGACAT	-0.0148
GTAGTGTA	-0.149
CCTCTTTA	-0.0112
GCTAAAGC	-0.0673
CCTAGATC	-0.113
ATTATTGG	0.0592

Sequence	PBM E-score
ACTCTGCA	-0.026
CGTACAGC	0.105
CAGATCGG	0.29
GCGAGCCA	-0.132
CTACCCAA	-0.238
GTCGCGCA	0.0561
CATGTCCA	-0.117
CTACAAAG	-0.212
GATCAGAA	-0.321
AGTGACAG	-0.0907
AAGGGCAA	-0.0626
CATTCAGC	-0.149
ATACCCCG	0.392
ACTCTACG	-0.241
ACAGCGTA	-0.0758
GAAGGACA	0.0852
GGAAACCA	-0.0888
CAATCAAC	-0.135
ACTTGTCG	0.124
GGCCTGAA	0.0195
AGTTTCTC	-0.227
AAATGTAA	-0.0576
CAGTCATA	-0.0326
TAGGGCAA	-0.123
ACCCGACC	0.279

Sequence	PBM E-score
GATCGACC	-0.0421
CCGCTTGA	0.29
GCGTGGCA	-0.121
AACAGGCG	0.0259
CAGTGTTA	-0.169
ATAATGTA	-0.183
CAGCTATG	-0.259
CATGGACA	-0.32
CTGGTGCC	0.0505
TGGACGAA	-0.0764
ACGCCCGT	0.207
CGTTGAGC	0.127
ATACCATA	-0.0647
AAATAACT	0.0736
AGCTATGG	-0.183
CGACACCG	0.371
CATTAAGG	0.0273
TACGTCCA	-0.029
ACGGCGAA	0.13
CATGAAAC	-0.0171
ATCTGTAC	0.0786
CCCTGGTA	-0.293
GTCGACGA	0.0221
GAAAGGCA	0.126
CAACCTAA	-0.242

Sequence	PBM E-score
GGAGTGGA	-0.221
AAGTCGCG	0.0857
AACGAGCG	0.0519
AATCTGGC	0.0172
GATGCTCA	0.0136
ATTCTGCG	0.0249
CACCTGAA	-0.0903
CTGCTTTA	-0.129
GGACAGTA	0.01
CTACCGGA	0.127
TCGGTTCA	-0.0201
CACCTATC	0.0464
GCTCGACC	-0.275
CGGACTTC	0.374
TAAAATAA	0.0899
ACAGTAAT	-0.154
CACCACAG	-0.0283
CCCTGACC	-0.231
ACCAAACA	0.101
CGACTCTA	-0.103
ATGATAGA	-0.0919
CCTACAAG	-0.119
GAGAGATA	0.0329
ACAGCCCC	-0.0495
GCGCAGAC	0.117

Sequence	PBM E-score
AAGGCTTC	-0.137
CTCCCGAC	0.226
ACGCGATG	-0.0822
CCTTTCAA	-0.164
CCAGAAGA	-0.258
CGGTTCAG	-0.0792
CAGAAATG	-0.128
GGGTGAGA	-0.103
ACTGTATA	-0.133
CTAGCGTC	0.0861
ATGAACGG	0.237
AGTGATCG	-0.112
GTATAGAA	-0.0198
CAAAGAAC	0.117
CCATCAGA	-0.0847
ACCTCAAC	-0.163
CCCTCAAG	-0.255
AGGATCAC	-0.151
CTCGGTGA	0.244
CTGACGTA	0.0234
ACCGGTGG	0.346
CCACAGAC	-0.248
GGACTCAC	0.0404
GAGGTCAC	-0.124
CGACCCCC	0.0808

Sequence	PBM E-score
ATGAACCG	0.00986
ACGAAAGC	-0.00125
AATCGTCG	0.0528
CCCCGAAA	0.287
ACCTTAAG	-0.113
TAATCACA	-0.0555
ATCTGCTA	-0.268
GTGGTAGA	-0.0275
AATGCGCG	0.207
ACACGCCT	-0.216
CTCGCGCA	0.0579
AGAAGCTA	0.09
CAAGGCGG	0.182
ACGTTGAC	-0.151
AATGGCAC	0.104
GCAGGTAA	0.136
GTCCCCAA	-0.0921
ATACCCAA	-0.146
CCGTCGAC	0.235
GCTGATAC	0.125
CCCCAGGA	-0.299
AATGACCG	0.365
ACAGTAGT	-0.277
CGTCTATA	0.0913
CACGACCC	-0.0181

Sequence	PBM E-score
GCGTAGAA	-0.0526
ACTGTGTG	-0.0165
ATTTTTAC	-0.0222
AACCTAGT	-0.0124
ATGTTGTA	-0.271
AGCTGCTG	-0.192
CCGCCGGC	0.421
CCGTCAGA	0.164
ACACAAAA	0.0656
CTTTCCCC	0.0457
ACTGAAAC	0.0402
ACGCGATC	-0.0459
ATGCCCAA	-0.116
GCCGATGA	0.357
GGCTTCAC	0.0671
GAGACACC	0.0825
AGTCTGAT	-0.333
CGAGGACA	4e-05
ATCTGGTG	-0.124
CATATAGA	0.0684
CTAAACGA	-0.0103
CTTCTCGA	-0.267
GACCTAAC	0.0774
GGAAAGGA	0.072
AAGTGTGT	-0.323

Sequence	PBM E-score
AACGCCGG	0.44
CCTGTACC	-0.17
AATGAGAA	-0.0972
CCGACAAC	0.339
CCTGTCAC	-0.0595
AGTCGAAT	-0.199
ACCCACCT	-0.144
AACCGTTC	0.128
AGGTGGGC	-0.207
GTGAAGTA	-0.0746
CCCGAGGG	0.0429
TATAACAA	0.109
ATTTCGTC	-0.206
CGCACGAC	0.0385
ATTGCACA	-0.251
CGGGGAGC	0.116
GAGAAGTA	-0.0166
AGTGTGAT	-0.203
ACGCACAC	-0.126
ATAAGCGA	0.0109
CGTCACAG	-0.0707
AGTTCCTA	-0.085
GCCATGGC	-0.0611
ACAGAAGC	-0.155
CTCCCAGA	-0.19

Sequence	PBM E-score
AGCACCCA	0.0695
GAGGGGGA	-0.12
ATACGAAC	-0.164
GCCTGGGA	-0.132
ACTGATCG	-0.0682
ACGGCAGA	0.018
CATCGAAC	-0.148
AAACTACA	-0.173
ATCATGTG	-0.165
AACTTAGT	0.0174
GGCTCCCC	-0.104
ATAATGCG	0.0614
CGGGATAC	0.178
ACATTTAA	0.122
GCCCGCAC	0.166
ACGATATG	-0.0261
ATGTACGC	-0.204
CTGACTCC	-0.0214
GCACGGTA	0.206
CTCTTAAC	-0.0534
ACGAGAAC	-0.162
ACCTGATC	-0.115
TATCAAGA	-0.221
AACGCTTG	-0.143
AAACCCTC	-0.0384

Sequence	PBM E-score
TGTATAAA	-0.026
ACAGAACC	-0.131
TACTATAA	0.0655
CAGCAACC	-0.0927
CGAGAGCG	0.0103
ACCCATAT	-0.252
GTTTACGA	-0.24
AACGATGA	0.0901
CAGGCGCG	-0.0248
CCGCTCCG	0.361
ACTCGGAG	0.0913
AATAGGTC	0.164
ACCGATTA	0.312
GCCCGGAC	0.29
AAACCACT	-0.109
AATAGCGA	0.0264
CTGATTGA	-0.0894
GAACAGGC	-0.181
CCTCCGAA	0.0721
AATACCTG	-0.0286
ACTCGCTA	0.00748
GCACTTCC	-0.0868
GCAATCAC	0.19
AATGAGGC	-0.0256
ATTCCCAC	-0.0437

Sequence	PBM E-score
AAAGGCGG	0.267
TAGGCAAA	0.00762
CAAATGCC	0.308
CCGAGCGA	0.141
GGGATAAC	0.225
AAGACCCG	0.325
AATAGGCT	-0.0163
CTAATTGC	-0.00404
CAGCGCCC	0.0893
GGGTCTCA	0.00241
CCTGTTGC	-0.102
GTCGGCAA	0.276
ACCGACTA	0.318
AGCTGCAA	-0.141
GACCCCGA	0.377
GGGTGGAC	-0.087
CGATTTGA	-0.0937
GAACTCCC	0.0614
ACTTTATC	0.00836
GGGCCTCA	-0.0159
GGAGCTTA	0.161
TACTTCGA	-0.0536
ACGTAAAC	-0.116
AAACCGTC	0.135
GGGCTAGA	0.118

Sequence	PBM E-score
AATGCTAT	-0.0247
ACTCCTCC	-0.0151
AGGCATGA	-0.251
TCGAAAAA	0.128
AAGCCTCA	-0.161
TCTCCTAA	-0.238
AACAGCGC	0.346
GGTTCCAA	0.251
ACAACTAG	-0.0413
AGGTCGAT	-0.0145
GGCTTCCC	-0.184
GATACGAC	0.0298
ACTCTTAG	-0.262
GATCTCCA	-0.155
GAACCAAC	-0.116
ATCCGCCA	0.18
GATATCGA	-0.12
ACGTTCAT	-0.285
GACACCCA	-0.181
GGGCCAGA	-0.0992
AAGAATCT	-0.021
ACGTTAGA	-0.116
CAGACGAC	-0.253
CAAACGCC	0.243
AAGTCACA	-0.203

Sequence	PBM E-score
GGAATGAC	0.00773
GGTTCCCA	-0.169
CGCCGTTA	0.356
AAATCAGT	-0.0369
ATTGGAGC	-0.193
CCCAACAG	-0.245
ATAACCAC	0.17
GTCACGAC	-0.047
AGTGATAC	-0.128
ATGTCTAA	-0.172
GAACAGGA	-0.0775
CAAGTTGC	-0.0787
CCTCCACA	-0.152
GTGCCTTA	-0.11
AGTACCTC	-0.144
GTTTAACA	0.0292
ACTCGTAC	-0.0512
GGCTAACA	0.075
CCAACTGG	-0.18
